# Reference: PubChem BioAssay (NCI)
# Values joined by “and” are separate entries in the source; they are usually repeats but may differ in a detail not shown here. Identical values can stand only once.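 1) Cells in 96-well plates. 2) Compound, 48 h, 5 concentrations. 3) Linear interpolation between surrounding doses. 4) Unreached endpoint = highest concentration. The concentration for 50% growth inhibition is given as GI50. The concentration for full growth arrest is given as TGI.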
# System: NCI-H322M lung
# Assay: DTP human tumour cell line panel, 48 h
Compound,TGI [µM],GI50
CC(C)=CCc1[nH]c2ccccc2c1C1=C(O)C(=O)C(c2c(CC=C(C)C)[nH]c3ccccc23)=C(O)C1=O,14.6,
COC(=O)C1Cc2c(n(C)c3ccccc23)C(CCC(=O)O)N1Cc1ccccc1 (stereo not given),> 100,
O=[N+]([O-])C=C(c1ccc(Cl)cc1)c1ccc(Cl)cc1,30.7,
O=C(/C=C/c1ccccc1F)c1ccc(Cl)c(Cl)c1,> 100,
OCCN(/N=C\c1ccc2ccccc2c1)C1=NCCN1,77.6,
CN(C)c1ccc2oc(=O)c3ccccc3c2c1,> 100,
COc1ccc([C@@H]2CC(=O)N2)cc1,> 100,
O=C(O)[C@H](NS(=O)(=O)c1ccc(F)cc1)c1ccccc1,> 100,
c1ccc(C2OC3(CCC[C@H]4C[C@H]43)O[C@H]2c2ccccc2)cc1 (stereo not given in full),> 100,
O=C(CSc1nc(-c2ccccc2)c(-c2ccccc2)[nH]1)N/N=C/c1ccc(O)cc1,> 100,
CC(C)=CCC/C(C)=C/COc1c2ccoc2cc2oc(=O)ccc12,> 100,
O=C(CCCN1CCC(O)(c2ccc(Cl)cc2)CC1)c1ccc(F)cc1,> 100,
COc1ccccc1NC(=O)CC(=O)N1N=C(N2c3ccccc3Sc3ccccc32)CC1c1ccccc1 (stereo not given),> 100,
CC(=O)Oc1c(-c2ccccc2)sc2ccccc12,33.9,
O=C(N=c1ccc2nc(=O)[nH]n(O)c-2c1)C(F)(F)F,> 100,
Cc1n[nH]c(=O)n1/N=C\c1ccccc1,> 100,
O=C(O)c1cnc(-n2[nH]c3c(c2=O)CCCC3)[nH]c1=O,> 100,
COC1=CC(=O)CC(C)C12Oc1c(Cl)c(OC)cc(OC)c1C2=O (stereo not given),> 100,
O=C(c1ccc(Cl)cc1)N(C(=S)N1CCN(c2ccccn2)CC1)C1CCCCC1,> 100,
CC(O)(P(=O)(O)O)P(=O)(O)OCC(O)CN1CCOCC1 (stereo not given),> 100,
CN(C)C(=N/O)/C(=N\O)N(C)C,> 100,
CCC(C)Nc1ccc(N)cc1 (stereo not given),> 100,7.51 µM
CCc1ccc(CCC(=O)Nc2ncc(Cc3ccc(Cl)cc3)s2)o1,> 100,0.656 µM

Compound,TGI [µM],GI50
CC1(C)CNc2cc(NC(=O)c3cccnc3NCc3ccncc3)ccc21,> 100,51.8 µM
O=C1C(c2ccc(Br)cc2)=[N+]([O-])c2ccccc21,39.7,
COc1ccc(Cc2coc3ccccc3c2=O)cc1OC,> 100,
CC1/C(=N\O)CC(c2ccccc2)N(C)C1c1ccccc1 (stereo not given),> 100,
O=C(O)c1ccc(C2=Cc3cc(Cl)ccc3OC2)cc1,> 100,
C[C@@H]1C(=O)C[C@H]2C(C)(C)CCC[C@]2(C)[C@@]1(O)CCc1ccoc1,> 100,
CNC(=O)c1c(NC(=O)c2ccc(C(C)(C)C)cc2)sc2c1CCC(=O)C2,> 29.1,2.9 µM
CC1=C(C(=O)Nc2ccccc2)C(c2cccc3ccccc23)C(C(=O)Nc2ccccc2)=C(C)N1,> 100,
Clc1cccc(NN=Nc2ccc(-c3nc4ccccc4s3)cc2)c1,> 100,
COC12C=C/C(=C(/C(=O)OCc3ccccn3)C(=O)CCCCCCCCC3(OC)C=C/C(=C(/C(=O)OCc4ccccn4)C(=O)CCCCCCCC1)O3)O2,2.79,1.09 µM
O=c1oc2ccccc2cc1-c1cn2c(n1)sc1ccccc12,14.2,
Nc1nc([Se])c2ncn(C3OC(CO)C(O)C3O)c2n1 (stereo not given),> 100,20.9 µM
CCOC(=O)C(NC(=O)c1ccccc1)(N1CCN(c2cc3c(cc2F)c(=O)c(C(=O)O)cn3CC)CC1)C(F)(F)F (stereo not given),> 100,
C=C(NC(=O)C(=C)NC(=O)c1csc(C2=NC3c4csc(n4)C4NC(=O)c5csc(n5)C(C(C)(O)C(C)O)NC(=O)C5CSC(=N5)/C(=C/C)NC(=O)C(C(C)O)NC(=O)c5csc(n5)C3(CC2)NC(=O)C(C)NC(=O)C(=C)NC(=O)C(C)NC(=O)C(C(C)CC)NC2C=Cc3c(C(C)O)cc(nc3C2O)C(=O)OC4C)n1)C(N)=O (stereo not given),36.8,
C=C/C=C/[C@@H](O)CC(=C)C[C@H]1OC2[C@H](C)[C@@H](OC(=O)C[C@H]3C[C@H](OC(C)=O)C[C@@]4(C[C@@](C)(O)C[C@H](CC(=C)[C@@H](C)[C@H](OC(C)=O)[C@H](C)C(=O)C[C@@H]5C[C@H](OC)CC6(C[C@@H](O)C[C@H](/C=C\CCC[C@H]7O[C@](O)(C=C[C@H]7C)[C@H]2O)O6)O5)O4)O3)[C@@H]1O,> 25,0.00361 µM and 0.0025 µM
Cc1nc(C)c(N2CCNCC2)c(=O)[nH]1,> 100,
COc1cc(OC)c2c3c(OC)cc(OC)c4c(=O)c(O)c(C[C@@H](C)O)c(c5c(C[C@@H](C)O)c(O)c(=O)c1c25)c43,> 100,
CC(=O)Oc1c2c(c3n(c1=O)CCCC3)C(=O)N(c1ccccc1)C2=O,> 100,
COc1cc(Nc2ncc(-c3ccccc3)o2)cc(OC)c1,> 25,> 25 µM
NC1=Nc2cc(Cl)ccc2Sc2nc3ccccc3n21,> 100,
C[C@]12CC[C@H]3[C@@H](CC=C4C[C@@H](N5CCCC5)CC[C@@]43C)[C@@H]1C/C(=C\c1cccc(OCCN3CCOCC3)c1)[C@@H]2O,> 100,7.07 µM
COc1c2c(c3ccccc3c1O)C1C=CC2C1 (stereo not given),30.7,
CCCCCCCCCCCCCCC(O)C[N+](C)(CCO)CCO (stereo not given),28.6,

Compound,TGI [µM],GI50
NCC(O)CNC(=O)c1ccc(-c2ccc(-c3ccc(C(=O)NCC(O)CN)cc3)o2)cc1 (stereo not given),44.2,
Cc1ccc(/C=N/Nc2nc(Nc3ccccc3)nc(-n3nc(C)cc3C)n2)cc1,64.9,4.26 µM
O=C(CC1OC(O)C(Cl)=C1Cl)c1cccnc1 (stereo not given),> 100,
O=C(/C=C/c1cccc(Oc2ccccc2)c1)NCc1ccc(C(=O)NCCc2ccccc2)cc1,> 100,
O=c1[nH]c2ccccc2nc1/C=C(\O)c1ccccc1O,> 100,
COc1ccc2c(c1)nc(C(=O)c1ccco1)c(C(F)(F)F)[n+]2[O-],> 100,> 100 µM
COc1ccc(N=NC(=O)NC(CC(C)C)C(N)=O)cc1 (stereo not given),> 31.6,
CCOCCCn1c2c(c3c(O)cccc31)C(=O)c1ccccc1-2,59.7,19 µM
Nc1[nH]nc2nc3ccccc3nc12,> 100,
C=C1C(O)C[C@H](OC(C)=O)[C@]2(C)C1C(OC(C)=O)[C@]1(C(C)(C)O)CC(O)C(C)=C1[C@@H](OC(=O)c1ccccc1)C2OC(C)=O (stereo not given in full),> 10,
CC1=C(c2ccccc2)C(O)(c2ccccc2)C(C)C1=O (stereo not given),> 100,23.5 µM
O=C1CC(c2ccccc2)=Nc2ccccc2N1,> 100,
NC(=O)c1ccccc1[N+](=O)[O-],> 100,
CC(C)(C)c1cc(OCc2nn3c(Cc4ccccc4)nnc3s2)c(Cl)cc1OCc1nn2c(Cc3ccccc3)nnc2s1,> 100,
O=C1/C=C(/c2ccc(O)cc2)[C@@H](O)Cc2ccc(O)cc2O1,> 100,
COc1ccc(C2C(C#N)=C(S)N(C3OC(COC(C)=O)C(OC(C)=O)C(OC(C)=O)C3OC(C)=O)C(c3ccccc3)=C2C(C)=O)cc1 (stereo not given),> 100,
Clc1ccc(-c2cn3c(nc4ccccc43)c(/C=C/c3ccco3)n2)cc1,> 100,
C[CH2][Ge]([CH2]C)([CH2]C)[O]C(=O)C(OC(C)=O)c1ccccc1 (stereo not given),> 100,> 100 µM
COCN1COCN=C1NC#N,> 100,
CC(N)(Cc1c[nH]c2cccc(F)c12)C(=O)O (stereo not given),> 1000,> 1000 µM
Cc1cc2c(cc1Cl)S/C(=C/C(=O)O)C(Nc1ccc3ncsc3c1)=NS2(=O)=O,> 52.4,21.4 µM
Cn1c(CO)ccc1-c1ccc(-c2ccc[se]2)[se]1,> 87.2,
C/C=C1\CN(C(=O)OC(C)(C)C)C1C(=O)OC(C)(C)C (stereo not given),> 100,
